In PMC3335008:
Results are given in words; binding and its absence hold for the method and conditions named. For part of these data: In cells and extracts the contact can be indirect. Some entries that bind do so weakly or less than the wild type. For part of these data: Sequences can lack the tags named with a protein. Each block holds one molecule with its values, some of them ahead of it.

The chains behind the UniProt entries cited, without tags or fusion partners.
UniProt O00425: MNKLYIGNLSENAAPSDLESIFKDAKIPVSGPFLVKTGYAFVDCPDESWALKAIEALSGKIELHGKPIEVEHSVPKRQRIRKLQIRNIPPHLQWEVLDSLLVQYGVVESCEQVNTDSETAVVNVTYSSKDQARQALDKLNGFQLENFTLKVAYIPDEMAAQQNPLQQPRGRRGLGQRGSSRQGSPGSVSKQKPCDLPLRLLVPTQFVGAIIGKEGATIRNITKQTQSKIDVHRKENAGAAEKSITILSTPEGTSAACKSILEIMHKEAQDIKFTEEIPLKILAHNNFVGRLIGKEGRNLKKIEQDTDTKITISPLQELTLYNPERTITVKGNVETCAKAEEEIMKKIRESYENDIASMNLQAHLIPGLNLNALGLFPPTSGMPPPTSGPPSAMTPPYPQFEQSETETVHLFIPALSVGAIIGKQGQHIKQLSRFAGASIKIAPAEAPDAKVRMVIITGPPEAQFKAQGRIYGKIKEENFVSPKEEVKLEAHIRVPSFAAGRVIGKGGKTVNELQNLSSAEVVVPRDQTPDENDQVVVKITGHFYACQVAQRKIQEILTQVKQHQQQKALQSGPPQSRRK
UniProt P11940: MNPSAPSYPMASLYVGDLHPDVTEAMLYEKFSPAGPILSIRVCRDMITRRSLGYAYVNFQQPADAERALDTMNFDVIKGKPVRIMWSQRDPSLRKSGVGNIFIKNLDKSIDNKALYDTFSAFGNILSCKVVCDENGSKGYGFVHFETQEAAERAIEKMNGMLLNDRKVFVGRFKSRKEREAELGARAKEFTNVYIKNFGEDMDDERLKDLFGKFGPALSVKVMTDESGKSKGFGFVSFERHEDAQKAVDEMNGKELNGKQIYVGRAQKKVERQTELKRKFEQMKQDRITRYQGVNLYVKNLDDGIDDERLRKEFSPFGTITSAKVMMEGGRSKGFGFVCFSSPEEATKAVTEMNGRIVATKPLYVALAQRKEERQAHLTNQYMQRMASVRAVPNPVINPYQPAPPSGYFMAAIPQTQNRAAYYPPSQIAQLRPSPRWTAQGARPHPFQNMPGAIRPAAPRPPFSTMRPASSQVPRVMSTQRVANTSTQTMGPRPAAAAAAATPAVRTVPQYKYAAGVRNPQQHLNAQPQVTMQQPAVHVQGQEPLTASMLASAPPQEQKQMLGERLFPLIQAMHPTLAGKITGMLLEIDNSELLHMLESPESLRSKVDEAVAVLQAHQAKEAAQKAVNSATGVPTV
UniProt Q02156: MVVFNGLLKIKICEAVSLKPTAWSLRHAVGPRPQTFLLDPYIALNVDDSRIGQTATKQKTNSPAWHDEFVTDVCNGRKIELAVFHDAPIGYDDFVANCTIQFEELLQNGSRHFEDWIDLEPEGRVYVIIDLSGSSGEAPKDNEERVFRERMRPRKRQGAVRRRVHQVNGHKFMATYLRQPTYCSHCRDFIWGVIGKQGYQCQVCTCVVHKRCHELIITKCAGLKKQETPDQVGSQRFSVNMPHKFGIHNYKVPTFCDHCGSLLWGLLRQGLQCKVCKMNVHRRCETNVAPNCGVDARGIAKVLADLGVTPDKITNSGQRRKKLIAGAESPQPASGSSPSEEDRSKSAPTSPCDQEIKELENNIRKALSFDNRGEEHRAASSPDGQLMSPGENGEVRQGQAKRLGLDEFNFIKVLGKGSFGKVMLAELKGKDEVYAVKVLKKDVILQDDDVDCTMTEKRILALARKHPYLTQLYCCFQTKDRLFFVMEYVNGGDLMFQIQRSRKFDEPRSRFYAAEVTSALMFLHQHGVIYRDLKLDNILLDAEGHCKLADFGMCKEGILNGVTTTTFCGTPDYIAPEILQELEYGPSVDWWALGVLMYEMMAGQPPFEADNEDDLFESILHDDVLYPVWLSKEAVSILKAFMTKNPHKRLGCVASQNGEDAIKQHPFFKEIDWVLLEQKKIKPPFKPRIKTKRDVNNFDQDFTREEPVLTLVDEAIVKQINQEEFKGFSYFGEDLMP

What was measured:
GST/His fusion of G3BP2b = target: T1, GST/His fusion of G3BP2b (UniProt Q9UN86); assay: pull-down; 80 ng PKCα with 4 µg GST-G3BP recombinant protein in 100 µl 20 mM Tris pH 7.4, 0.1 mM EDTA, 100 mM NaCl, 1 mM DTT, 1 h at 4°C; GST captured (anti-GST MicroBeads in the methods, GSH-coupled sepharose in the legend); Western blot; both purified
T1 sequence: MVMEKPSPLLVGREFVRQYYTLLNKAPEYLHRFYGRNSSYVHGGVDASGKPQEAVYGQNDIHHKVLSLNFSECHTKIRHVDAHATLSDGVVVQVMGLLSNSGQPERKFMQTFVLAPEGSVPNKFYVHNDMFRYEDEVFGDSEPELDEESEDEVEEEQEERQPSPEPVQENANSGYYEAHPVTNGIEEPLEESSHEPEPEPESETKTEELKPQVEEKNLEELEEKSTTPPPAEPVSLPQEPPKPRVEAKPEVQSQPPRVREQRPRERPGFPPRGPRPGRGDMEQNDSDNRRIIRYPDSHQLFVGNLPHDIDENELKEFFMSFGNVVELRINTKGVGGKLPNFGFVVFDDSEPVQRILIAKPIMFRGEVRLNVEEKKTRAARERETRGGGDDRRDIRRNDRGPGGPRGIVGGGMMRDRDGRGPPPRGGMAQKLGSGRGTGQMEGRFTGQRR

[1] = target: T2, GST/His fusion of G3BP2a (human (cDNA from MDA-MB-231 cells)) (UniProt Q9UN86); assay: as above
T2 sequence: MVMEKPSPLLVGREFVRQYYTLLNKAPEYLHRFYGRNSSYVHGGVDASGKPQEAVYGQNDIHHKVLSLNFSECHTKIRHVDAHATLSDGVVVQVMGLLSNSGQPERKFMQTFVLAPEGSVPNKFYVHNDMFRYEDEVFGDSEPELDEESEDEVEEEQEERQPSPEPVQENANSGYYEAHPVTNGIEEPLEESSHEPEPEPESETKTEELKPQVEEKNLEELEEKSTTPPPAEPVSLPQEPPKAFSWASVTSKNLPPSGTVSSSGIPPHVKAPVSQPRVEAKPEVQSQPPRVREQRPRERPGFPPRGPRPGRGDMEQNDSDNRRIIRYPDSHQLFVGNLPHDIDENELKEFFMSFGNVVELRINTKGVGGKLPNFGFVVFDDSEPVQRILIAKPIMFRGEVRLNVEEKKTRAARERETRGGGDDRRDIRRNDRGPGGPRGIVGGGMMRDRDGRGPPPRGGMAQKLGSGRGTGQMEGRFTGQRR

[2] = target: GST/His fusion of G3BP1 (human (cDNA from MDA-MB-231 cells)) (UniProt Q13283); assay: as above
[3] = target: T3, RasGAP binding protein 2 (G3BP2), endogenous (human (endogenous in SK-N-BE(2)C)) (UniProt Q9UN86); assay: co-IP; PKCα or G3BP2 immunoprecipitated from SK-N-BE(2)C lysate treated with RNase; lysis buffer 150 mM NaCl, 1% triton X-100, 50 mM Tris HCl, pH 8.0; Western blot
T3 sequence: T2 sequence

[4] = target: T3, RasGAP binding protein 2 (G3BP2), endogenous (human (endogenous in SK-N-BE(2)C)); assay: co-IP; PKCα or G3BP2 immunoprecipitated from SK-N-BE(2)C lysate treated with RNase inhibitor; lysis buffer 150 mM NaCl, 1% triton X-100, 50 mM Tris HCl, pH 8.0; Western blot
[5] = target: T3, RasGAP binding protein 2 (G3BP2), endogenous (human (endogenous in SK-N-BE(2)C)); assay: co-IP; antibodies towards IGF2BP3, PABPC1 and G3BP2 on lysates of cells subjected to heat shock; precipitates analysed for PKCε
[6] = target: IGF-II mRNA binding protein 3 (IGF2BP3), endogenous (human (endogenous in SK-N-BE(2)C)) (UniProt O00425); assay: as above
[7] = target: T3, RasGAP binding protein 2 (G3BP2), endogenous (human (endogenous in SK-N-BE(2)C)); assay: co-IP; antibodies towards IGF2BP3, PABPC1 and G3BP2 on lysates of cells under normal growth conditions (no heat shock); precipitates analysed for PKCε
[8] = target: cytoplasmic poly(A)+ binding protein (PABPC1), endogenous (human (endogenous in SK-N-BE(2)C)) (UniProt P11940); assay: as above
[9] = target: IGF-II mRNA binding protein 3 (IGF2BP3), endogenous (human (endogenous in SK-N-BE(2)C)) (UniProt O00425); assay: as above
[10] = target: T3, RasGAP binding protein 2 (G3BP2), endogenous (human (endogenous in SK-N-BE(2)C)); assay: co-IP; G3BP2 antibody on untreated SK-N-BE(2)C lysate (Fig. 2B); lysis buffer 150 mM NaCl, 1% triton X-100, 50 mM Tris HCl, pH 8.0; blot with PKCα and phospho-PKC antibodies
[11] = target: Protein kinase C alpha (PKCα), endogenous (human (endogenous in SK-N-BE(2)C)) (UniProt P17252); assay: co-IP; PKCα or G3BP2 immunoprecipitated from SK-N-BE(2)C lysate treated with RNase; lysis buffer 150 mM NaCl, 1% triton X-100, 50 mM Tris HCl, pH 8.0; Western blot
[12] = target: T4, TIAR, endogenous (human (endogenous in SK-N-BE(2)C)) (UniProt Q01085); assay: co-IP; anti-TIAR on sonicated lysates of SK-N-BE(2)C cells transfected with EGFP, EGFP-C1a or EGFP-C1b and kept at 37°C or 44°C for 1 h; Western blot
T4 sequence: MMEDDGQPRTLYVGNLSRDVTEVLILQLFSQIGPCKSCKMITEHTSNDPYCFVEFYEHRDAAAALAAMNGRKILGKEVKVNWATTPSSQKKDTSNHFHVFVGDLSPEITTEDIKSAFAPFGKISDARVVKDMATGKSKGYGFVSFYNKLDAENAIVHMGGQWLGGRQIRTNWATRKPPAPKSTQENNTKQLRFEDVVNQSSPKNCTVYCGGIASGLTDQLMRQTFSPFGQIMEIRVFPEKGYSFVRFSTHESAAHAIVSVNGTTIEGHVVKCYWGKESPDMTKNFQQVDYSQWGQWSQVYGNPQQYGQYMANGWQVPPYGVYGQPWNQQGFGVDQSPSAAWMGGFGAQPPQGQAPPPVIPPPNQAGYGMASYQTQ

[13] = target: Protein kinase C alpha (PKCα), endogenous (human (endogenous in SK-N-BE(2)C)) (UniProt P17252); assay: co-IP; PKCα or G3BP2 immunoprecipitated from SK-N-BE(2)C lysate treated with RNase inhibitor; lysis buffer 150 mM NaCl, 1% triton X-100, 50 mM Tris HCl, pH 8.0; Western blot
[14] = target: EGFP fusion of the C2 domain of PKCα (human) (UniProt P17252); assay: co-IP; EGFP fusions of PKCα domains expressed in SK-N-BE(2)C cells, precipitated with anti-GFP-conjugated magnetic beads; polysome lysis buffer (100 mM KCl, 5 mM MgCl2, 10 mM HEPES, 1 mM DTT, 1% IgePAL CA-630, pH 7.0); Western blot for endogenous partners

binding (GST/His fusion of G3BP2b): binds
binding [1]: binds
binding [2]: binds
Molecule: PKCα isozyme (Sigma), recombinant (from UniProt P17252 1-672) (enzyme)

binding [3]: binds
binding [4]: binds
Molecule: Protein kinase C alpha (PKCα), endogenous (from UniProt P17252 1-672)

binding [5]: binds
binding [6]: binds
binding [8]: no binding
Molecule: Protein kinase C epsilon (PKCε), endogenous (from UniProt Q02156 1-737)
binding [7]: no binding (condition: cells without heat shock)
binding [9]: no binding (condition: cells without heat shock)

binding [10]: binds
Molecule: slower migrating PKCα variant with both C-terminal phosphorylation sites phosphorylated, endogenous (from UniProt P17252 1-672)

binding [11]: binds
binding [12]: binds
binding [13]: binds
binding [14]: binds
B1: RasGAP binding protein 2 (G3BP2), endogenous (protein, UniProt Q9UN86 1-482)
chain: T2 sequence
